Assay results from the supplement of paper PMC4967469.
By IC50 is meant the dose at which the fit gives 50% viability; a fit beyond the top or the lowest dose is shown as a bound at that dose. The AUC spans the tested range (256-fold, ending at the top dose) of the same fit; the more sensitive the line, the further below 1. The top dose, if marked as inferred, is not printed in the source and was worked back from the curve model.

Columns and labels:
Experiment in all cases: Viability of human cancer cell lines after 72 h of drug (GDSC screen)
[1] = compound: Cc1cc([N+](=O)[O-])ccc1NS(=O)(=O)c1cc(Cl)ccc1Cl [FH535]; conditions: top dose 32 µM; top dose inferred
Description: (§1)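 Human cancer cell lines in 384-well plates, medium with 10% serum, drug for 72 h over a 256-fold dose range (nine 2-fold or five 4-fold steps up to the top dose). Adherent lines were fixed and stained with the nucleic acid dye Syto60, suspension lines read with resazurin; signal relative to control wells, capped at 0 and 100%. One two-parameter sigmoid per drug and line, fitted in a mixed model over all curves with the slope shared within a line.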

[2] = compound: COc1cc(N2CCN(C)CC2)ccc1Nc1nc(N)c(C(=O)c2c(Cl)cccc2Cl)s1 [XMD14-99]; conditions: top dose 10.24 µM; top dose inferred
Description: as §1

[3] = compound: O=C(NC1CCNCC1)c1n[nH]cc1NC(=O)c1c(Cl)cccc1Cl [AT-7519]; conditions: top dose 10.24 µM; top dose inferred
Description: as §1

| Cell Line | AUC [1] | IC50 [1] [µM] | AUC [2] | IC50 [2] [µM] | AUC [3] | IC50 [3] [µM] |
| --- | --- | --- | --- | --- | --- | --- |
| LU-99A (large cell lung carcinoma, adherent) | 0.436 | 1.34 | 0.985 | > 10.2 | 0.896 | > 10.2 |
| LU-135 (small cell lung carcinoma, suspension) | 0.509 | 2.11 | 0.978 | > 10.2 | 0.856 | 6.1 |
| LoVo (large intestine, adherent) | 0.48 | 1.76 | 0.986 | > 10.2 | 0.964 | > 10.2 |
| M14 (melanoma, adherent) | 0.904 | > 32 | 0.985 | > 10.2 | 0.88 | > 10.2 |
| M059J (glioma, adherent) | 0.685 | 6.92 | 0.985 | > 10.2 | 0.725 | 2.98 |
| MC-IXC (neuroblastoma, adherent) | 0.549 | 2.63 | 0.996 | > 10.2 | 0.498 | 0.631 |
| MCF7 (breast, adherent) | 0.551 | 2.78 | 0.986 | > 10.2 | 0.976 | > 10.2 |
| MDA-MB-157 (breast, adherent) | 0.692 | 7 | 0.988 | > 10.2 | 0.892 | > 10.2 |
| MDA-MB-175-VII (breast, adherent) | 0.493 | 1.91 | 0.981 | > 10.2 | 0.929 | > 10.2 |
| MDA-MB-231 (breast, adherent) | 0.775 | 13.4 | 0.982 | > 10.2 | 0.733 | 3.11 |
| MDA-MB-330 (breast, adherent) | 0.463 | 1.56 | 0.984 | > 10.2 | 0.773 | 4.54 |
| MDA-MB-361 (breast, adherent) | 0.548 | 2.7 | 0.989 | > 10.2 | 0.972 | > 10.2 |
| MDA-MB-415 (breast, adherent) | 0.626 | 5.01 | 0.982 | > 10.2 | 0.927 | > 10.2 |
| MDA-MB-436 (breast, adherent) | 0.415 | 1.1 | 0.983 | > 10.2 | 0.961 | > 10.2 |
| MDA-MB-453 (breast, adherent) | 0.72 | 9.09 | 0.93 | > 10.2 | 0.736 | 3.3 |
| MDA-MB-468 (breast, adherent) | 0.437 | 1.36 | 0.969 | > 10.2 | 0.626 | 1.4 |
| ME-180 (cervix, adherent) | 0.691 | 7.06 | 0.978 | > 10.2 | 0.569 | 0.997 |
| MEL-JUSO (melanoma, adherent) | 0.682 | 6.87 | 0.959 | > 10.2 | 0.499 | 0.636 |
| MES-SA (uterus, adherent) | 0.707 | 6.89 | 0.992 | > 10.2 | 0.855 | 6.31 |
| MFE-280 (endometrium, adherent) | 0.526 | 2.4 | 0.982 | > 10.2 | 0.871 | > 10.2 |
| MFE-296 (endometrium, adherent) | 0.619 | 4.36 | 0.985 | > 10.2 | 0.893 | > 10.2 |
| MFE-319 (endometrium, adherent) | 0.597 | 3.66 | 0.989 | > 10.2 | 0.842 | 6.85 |
| MG-63 (osteosarcoma, adherent) | 0.686 | 7.28 | 0.982 | > 10.2 | 0.98 | > 10.2 |
| MHH-ES-1 (Ewing sarcoma, adherent) | 0.679 | 6.28 | 0.872 | 9.54 | 0.356 | 0.257 |

| Cell Line | AUC [1] | IC50 [1] [µM] | AUC [2] | IC50 [2] [µM] | AUC [3] | IC50 [3] [µM] |
| --- | --- | --- | --- | --- | --- | --- |
| MIA-PaCa-2 (pancreas, adherent) | 0.361 | 0.794 | 0.985 | > 10.2 | 0.941 | > 10.2 |
| MKN1 (stomach, adherent) | 0.61 | 4.08 | 0.978 | > 10.2 | 0.677 | 2.06 |
| MKN28 (stomach, adherent) | 0.597 | 3.71 | 0.984 | > 10.2 | 0.849 | 7.97 |
| MKN45 (stomach, adherent) | 0.519 | 2.29 | 0.965 | > 10.2 | 0.678 | 2.31 |
| ML-1 (thyroid, adherent) | 0.535 | 2.54 | 0.984 | > 10.2 | 0.811 | 6.59 |
| MOG-G-CCM (glioma, adherent) | 0.774 | 14.7 | 0.967 | > 10.2 | 0.872 | > 10.2 |
| MOG-G-UVW (glioma, adherent) | 0.572 | 3.13 | 0.985 | > 10.2 | 0.516 | 0.709 |
| MS751 (cervix, adherent) | 0.605 | 3.8 | 0.987 | > 10.2 | 0.668 | 1.8 |
| Mewo (melanoma, adherent) | 0.703 | 8.46 | 0.979 | > 10.2 | 0.92 | > 10.2 |
| NCI-H28 (mesothelioma, adherent) | 0.714 | 9.86 | 0.978 | > 10.2 | 0.966 | > 10.2 |
| NCI-H196 (small cell lung carcinoma, adherent) | 0.93 | > 32 | 0.971 | > 10.2 | 0.892 | > 10.2 |
| NCI-H358 (lung adenocarcinoma, adherent) | 0.678 | 6.7 | 0.981 | > 10.2 | 0.459 | 0.488 |
| NCI-H441 (lung adenocarcinoma, adherent) | 0.649 | 6.17 | 0.981 | > 10.2 | 0.916 | > 10.2 |
| NCI-H460 (large cell lung carcinoma, adherent) | 0.612 | 3.93 | 0.99 | > 10.2 | 0.99 | > 10.2 |
| NCI-H520 (lung squamous cell carcinoma, adherent) | 0.673 | – | 0.964 | > 10.2 | 0.53 | 0.775 |
| NCI-H522 (lung adenocarcinoma, adherent) | 0.51 | 2.14 | 0.984 | > 10.2 | 0.519 | 0.73 |
| NCI-H596 (lung adenocarcinoma, adherent) | 0.705 | 9.09 | 0.982 | > 10.2 | 0.683 | 2.44 |
| NCI-H647 (non-small cell lung carcinoma, adherent) | 0.865 | 30.4 | 0.979 | > 10.2 | 0.43 | 0.408 |
| NCI-H650 (lung adenocarcinoma, adherent) | 0.861 | 31.6 | 0.983 | > 10.2 | 0.594 | 1.19 |
| NCI-H661 (large cell lung carcinoma, adherent) | 0.59 | 3.72 | 0.972 | > 10.2 | 0.675 | 2.2 |
| NCI-H727 (lung carcinoid, adherent) | 0.504 | 2.06 | 0.949 | > 10.2 | 0.772 | 6.99 |
| NCI-H810 (large cell lung carcinoma, adherent) | 0.404 | 1.1 | 0.947 | > 10.2 | 0.488 | 0.593 |
| NCI-H838 (lung adenocarcinoma, adherent) | 0.733 | 9.56 | 0.987 | > 10.2 | 0.754 | 3.57 |
| NCI-H841 (small cell lung carcinoma, adherent) | 0.384 | 0.961 | 0.981 | > 10.2 | 0.862 | 8.85 |

| Cell Line | AUC [1] | IC50 [1] [µM] | AUC [2] | IC50 [2] [µM] | AUC [3] | IC50 [3] [µM] |
| --- | --- | --- | --- | --- | --- | --- |
| NCI-H1048 (small cell lung carcinoma, adherent) | 0.876 | 26.3 | 0.978 | > 10.2 | 0.558 | 0.904 |
| NCI-H1299 (large cell lung carcinoma, adherent) | 0.553 | 2.88 | 0.982 | > 10.2 | 0.896 | > 10.2 |
| NCI-H1435 (lung adenocarcinoma, semi-adherent) | 0.387 | 1.02 | 0.987 | > 10.2 | 0.929 | > 10.2 |
| NCI-H1437 (lung adenocarcinoma, adherent) | 0.535 | 2.5 | 0.963 | > 10.2 | 0.431 | 0.41 |
| NCI-H1563 (lung adenocarcinoma, adherent) | 0.758 | 13 | 0.984 | > 10.2 | 0.623 | 1.49 |
| NCI-H1568 (lung adenocarcinoma, adherent) | 0.664 | 6.46 | 0.976 | > 10.2 | 0.438 | 0.416 |
| NCI-H1573 (lung adenocarcinoma, adherent) | 0.834 | 20 | 0.987 | > 10.2 | 0.847 | 7.22 |
| NCI-H1623 (lung adenocarcinoma, adherent) | 0.898 | > 32 | 0.984 | > 10.2 | 0.955 | > 10.2 |
| NCI-H1651 (lung adenocarcinoma, adherent) | 0.55 | 2.77 | 0.983 | > 10.2 | 0.915 | > 10.2 |
| NCI-H1688 (small cell lung carcinoma, adherent) | 0.571 | 3.2 | 0.959 | > 10.2 | 0.837 | 7.89 |
| NCI-H1693 (lung adenocarcinoma, adherent) | 0.869 | > 32 | 0.969 | > 10.2 | 0.933 | > 10.2 |
| NCI-H1703 (lung adenocarcinoma, adherent) | 0.6 | 3.99 | 0.981 | > 10.2 | 0.83 | 8.47 |
| NCI-H1734 (lung adenocarcinoma, adherent) | 0.711 | 8.41 | 0.982 | > 10.2 | 0.75 | 3.65 |
| NCI-H1755 (lung adenocarcinoma, adherent) | 0.77 | 14 | 0.833 | 8.15 | 0.875 | > 10.2 |
| NCI-H1781 (lung adenocarcinoma, adherent) | 0.615 | 4.14 | 0.953 | > 10.2 | 0.971 | > 10.2 |
| NCI-H1792 (lung adenocarcinoma, adherent) | 0.588 | 3.39 | 0.99 | > 10.2 | 0.754 | 3.14 |
| NCI-H1915 (large cell lung carcinoma, adherent) | 0.583 | 3.38 | 0.962 | > 10.2 | 0.646 | 1.64 |
| NCI-H1944 (lung adenocarcinoma, adherent) | 0.52 | 2.28 | 0.985 | > 10.2 | 0.512 | 0.694 |
| NCI-H1993 (lung adenocarcinoma, adherent) | 0.741 | 12.5 | 0.982 | > 10.2 | 0.631 | 1.65 |
| NCI-H2009 (lung adenocarcinoma, adherent) | 0.505 | 2.07 | 0.986 | > 10.2 | 0.986 | > 10.2 |
| NCI-H2023 (lung adenocarcinoma, adherent) | 0.611 | 4.37 | 0.98 | > 10.2 | 0.945 | > 10.2 |
| NCI-H2029 (small cell lung carcinoma, adherent) | 0.869 | 24.7 | 0.992 | > 10.2 | 0.645 | 1.54 |
| NCI-H2030 (lung adenocarcinoma, adherent) | 0.656 | 5.78 | 0.973 | > 10.2 | 0.537 | 0.816 |
| NCI-H2085 (lung adenocarcinoma, adherent) | 0.665 | 5.99 | 0.984 | > 10.2 | 0.661 | 1.87 |
